# Laboratory results from article PMC4336329 (PLoS ONE, 2015).
# The campaign covered roughly 310,000 compounds. About 2,200 (0.71%) showed an effect of 50% or more. Effects have a minus sign here. The list shows a part of the results.
# Target: human ether-à-go-go-related gene (hERG) potassium channel (human, UniProt Q12809)
# Assay: primary screen, population patch clamp on CHO cells stably expressing hERG
# Chain of human ether-à-go-go-related gene (hERG) potassium channel (Q12809 whole entry, looked up): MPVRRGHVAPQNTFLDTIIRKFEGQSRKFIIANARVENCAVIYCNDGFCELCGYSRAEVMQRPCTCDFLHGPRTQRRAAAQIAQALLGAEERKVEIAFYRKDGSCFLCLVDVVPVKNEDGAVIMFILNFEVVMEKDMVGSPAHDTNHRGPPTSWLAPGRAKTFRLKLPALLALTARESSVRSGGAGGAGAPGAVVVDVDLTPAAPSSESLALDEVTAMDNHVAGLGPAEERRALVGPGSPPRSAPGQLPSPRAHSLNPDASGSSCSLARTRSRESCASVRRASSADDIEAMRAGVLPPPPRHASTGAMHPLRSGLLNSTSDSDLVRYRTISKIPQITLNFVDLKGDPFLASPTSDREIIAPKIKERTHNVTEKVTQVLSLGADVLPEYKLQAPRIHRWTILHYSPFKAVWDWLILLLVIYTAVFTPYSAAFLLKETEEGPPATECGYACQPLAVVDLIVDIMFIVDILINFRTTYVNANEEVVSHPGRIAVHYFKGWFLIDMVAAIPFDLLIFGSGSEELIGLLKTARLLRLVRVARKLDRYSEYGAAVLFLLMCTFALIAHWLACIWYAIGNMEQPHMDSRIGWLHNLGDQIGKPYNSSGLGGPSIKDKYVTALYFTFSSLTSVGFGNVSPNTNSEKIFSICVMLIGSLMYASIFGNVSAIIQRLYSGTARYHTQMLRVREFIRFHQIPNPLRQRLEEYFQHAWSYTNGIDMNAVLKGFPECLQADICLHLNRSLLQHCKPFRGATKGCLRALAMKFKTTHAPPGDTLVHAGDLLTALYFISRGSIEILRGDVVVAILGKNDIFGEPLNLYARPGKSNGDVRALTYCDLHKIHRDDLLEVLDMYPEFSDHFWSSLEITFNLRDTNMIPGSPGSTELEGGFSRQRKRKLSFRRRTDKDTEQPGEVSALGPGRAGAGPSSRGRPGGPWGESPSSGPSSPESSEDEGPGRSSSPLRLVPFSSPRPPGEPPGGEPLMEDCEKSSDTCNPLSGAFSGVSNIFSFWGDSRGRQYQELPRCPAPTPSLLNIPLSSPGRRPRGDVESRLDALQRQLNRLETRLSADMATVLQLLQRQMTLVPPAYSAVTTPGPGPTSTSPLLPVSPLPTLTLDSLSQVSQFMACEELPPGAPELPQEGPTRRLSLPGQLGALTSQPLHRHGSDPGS
row,SMILES,"hERG current change (%, negative = inhibition) at 1uM"
1,CCC(=O)N(Cc1ccccc1)c1ccccn1,12.1%
2,CCCCN1C(=O)C(=O)N(CC(=O)Nc2ccccc2C(=O)OCC)C1=O,8.3%
3,CC1(C)CC(=O)C2=C(C1)N(N1CCOCC1)C(N)=C(C#N)C2c1cccnc1 (stereo not shown),21.1%
4,CS(=O)(=O)N1CCC(C(=O)N2CCN(c3cccc(Cl)c3)CC2)CC1,3.4%
5,Cc1ccc(OCCC(=O)Nc2ccc(S(=O)(=O)Nc3cc(C)nc(C)n3)cc2)cc1,7.12%
6,Cc1cc(NS(=O)(=O)c2ccc(NC(=S)NC(=O)c3ccc(F)cc3)cc2)no1,0.776%
7,Cc1cc(N2CCN(c3ccccc3)CC2)nc(-n2nc(C)cc2C)n1,-51%
8,NNc1nc(N)c2c(n1)-c1ccccc1CC21CCCC1,15.8%
9,CS(=O)(=O)N1CCC(C(=O)NCc2ccc3c(c2)OCO3)CC1,12%
10,COCC(C)NCc1ccc(C)cc1C (stereo not shown),-1.57%
11,Cc1cc(NC(=O)CSCC(=O)N(C)Cc2ccc(F)cc2)no1,11.4%
12,COc1ccc2c(c1)Sc1ccccc1N2CCN(C)C.O=C(O)C(=O)O,2.44%
13,COc1ccc(OC)c(S(=O)(=O)Nc2ccc(Oc3ccccc3)cc2)c1,-7.69%
14,Cc1ccc(-c2nc3ccccc3[nH]2)s1,-7.75%
15,C=CCC(C(=O)OC)(C(=O)OC)c1ccccc1[N+](=O)[O-],5.41%
16,CC12CC3CC(C)(C1)CC(CN)(C3)C2.Cl,2.2%
17,COc1ccccc1-c1nnc(SC/C(O)=C(\C#N)c2nc3ccccc3[nH]2)n1C1CCCCC1,10.8%
18,CC(C)CNC(=O)[C@H](Cc1ccccc1)NC(=O)c1ccco1,-4.95%
19,COc1ccc(N(C)C(=O)Cc2c(C(=O)O)n(C)c3ccccc23)c(OC)c1,20.9%
20,Cc1ccc(-c2nnc(Nc3ccccc3)c3ccccc23)cc1S(=O)(=O)NCC1CCCO1 (stereo not shown),-4.57%
21,N#Cc1cnn2c(C(F)(F)F)c3c(nc12)CCCC3,7.64%
22,CC(C)c1ccc(C2C(C#N)=C(N)N3C(=C2C#N)Sc2ccccc23)cc1 (stereo not shown),15.9%

row,SMILES,"hERG current change (%, negative = inhibition) at 1uM"
1,CN1CCN(CC#CCOc2ccc(Cl)cc2)CC1.O=C(O)C(=O)O,13.5%
2,C/C(N)=C(/C#N)C(=O)COC(=O)CNS(=O)(=O)c1ccc2ccccc2c1,11.9%
3,COc1ccc(Br)cc1C(C[N+](=O)[O-])c1c(N)n(C)c(=O)n(C)c1=O (stereo not shown),9.81%
4,COc1ccc(/C=C/c2c(-c3ccc(OC)cc3)sc3ccc(N4CCOCC4)cc23)cc1,8.46%
5,CCc1ccc(-c2cc(C)no2)cc1S(=O)(=O)NCc1ccccc1OC,16.2%
6,Cc1cc(S(=O)(=O)N2CCOCC2)ccc1OCC(=O)N1CCCC1,15.4%
7,CCC(=O)N/C(N)=N/c1nc(C)c2cc(C)c(C)cc2n1,13.6%
8,CC(Cc1n[nH]c(=S)n1N)c1ccccc1 (stereo not shown),16.3%
9,CCOC(=O)c1cnn(-c2ncnc3c2oc2ccccc23)c1N,11.6%
10,CCOC(=O)C1C(c2cc(OC)c(O)c(OC)c2)NC(=S)NC1(O)C(F)(F)F (stereo not shown),7.44%
11,CN(C1=NC(=O)C(CC(=O)Nc2ccc(Br)cc2)S1)c1ccc(O)cc1 (stereo not shown),-12.2%
12,CC1CCc2nc3ccc(S(=O)(=O)N4CCC(C(=O)O)CC4)cc3c(C(=O)O)c2C1 (stereo not shown),9.69%
13,O=C(O)CSCC(=O)Nc1ccc(S(=O)(=O)N2CCCCC2)cc1,-2.03%
14,CCn1c(Cc2cccs2)nnc1SCC(=O)NC(C)(C)C,5.35%
15,CCn1c2ccccc2c2cc(NC(=O)COC(=O)c3ccc(O)cc3)ccc21,13.2%
16,COc1cc(C(=O)N2CCC(n3cnc4cc(F)ccc43)CC2)cc(OC)c1OC,-9.25%
17,O=C1CN(S(=O)(=O)c2cccc(Cl)c2Cl)c2ccccc2N1,13.3%
18,Cc1nc([N+](=O)[O-])cn1CC(=O)Nc1ccc([N+](=O)[O-])cc1,10.2%
19,Cc1ccc(-c2nc(C3CCN(S(C)(=O)=O)CC3)no2)cc1,10.3%
20,Cc1ccccc1OCCC(=O)OCC(=O)c1c(N)n(CC(C)C)c(=O)n(C)c1=O,-63.8%
21,O=C(O)c1cc(-n2cccc2)ccc1N1CCOCC1,7.77%
22,Nc1ncc([N+](=O)[O-])cc1S(=O)(=O)c1ccccc1,14.4%

row,SMILES,"hERG current change (%, negative = inhibition) at 1uM"
1,CC(=NCc1ccc2c(c1)OCO2)c1c(O)n(C)c(=O)n(C)c1=O,0.351%
2,COc1ccc(C(=O)Nc2nnc(C)s2)cc1S(=O)(=O)N1CCOCC1,2.79%
3,Oc1oc(-c2ccccc2Br)nc1C=Nc1ccc(Br)cn1,14.5%
4,N#Cc1ccc(OC(=O)Cc2ccsc2)cc1,18%
5,Clc1ccc2scc(CN3CCCC3)c2c1,10.7%
6,c1ccc(-c2nc(NCC3CCCO3)c3ccccc3n2)nc1 (stereo not shown),-14.1%
7,CC(=O)Nc1ccc(S(=O)(=O)N2CCC(c3nc4ccccc4[nH]3)CC2)cc1,-4.27%
8,C/C(=N\NC(=O)c1cccc(O)c1)c1ccc(NC(=O)Cc2ccccc2)cc1,-19.1%
9,CC1(C)CC(=O)C(CCC(=O)c2ccccc2)C(C)(C)N1 (stereo not shown),7.76%
10,CC(NC(=O)CN(C1CCCCC1)S(C)(=O)=O)c1ccccc1 (stereo not shown),7.88%
11,COc1ccc(-c2nc(CS(=O)CC(=O)NCc3cccnc3)c(C)o2)cc1OC (stereo not shown),9.73%
12,CCOC(=O)c1[nH]c(C)c(C(=O)N(CC)CC)c1C,8.76%
13,Cc1c(Cl)cccc1-n1c(-c2cccnc2)n[nH]c1=S,16.6%
14,Cl.Fc1ccc(CN2C3=NCCCN3c3ccccc32)cc1,-32.8%
15,C/C(N)=C(/C#N)C(=O)CSc1nnc(Nc2c(C)cccc2C)s1,12.6%
16,CCN(c1ccccc1)P(=O)(Nc1ccccc1)Nc1ccccc1,7.98%
17,CCOC(=O)CC1C(=O)NCCN1C(=O)c1ccc(C)cc1 (stereo not shown),14.6%
18,CCSc1ncnc2c1sc1nc3c(cc12)COC(C)(C)C3,3.34%
19,Cc1cc(C)nc(NC(=O)CN2C(=O)c3ccccc3S2(=O)=O)n1,-0.221%
20,C=CCn1c(SCC(=O)Nc2sccc2C(N)=O)nc2ccc(Cl)cc2c1=O,1.53%
21,N#CCOc1ccc(C2=NO[C@@H]3[C@@H]4C[C@@H]([C@H]5C(=O)N(c6ccc7c(c6)OCO7)C(=O)[C@@H]45)[C@H]23)cc1,18.8%
22,O=C(Nc1ccc(Nc2ccncc2)cc1)c1ccc(Nc2ccnc3ccc([N+](=O)[O-])cc23)cc1[N+](=O)[O-],9.3%

row,SMILES,"hERG current change (%, negative = inhibition) at 1uM"
1,COc1ccc(Cc2nnc(NC(=O)C3CCCO3)s2)cc1 (stereo not shown),6.5%
2,O=C(NOC(=O)c1ccccc1F)c1ccc(OC(F)F)cc1,6.47%
3,COc1ccc(S(=O)(=O)Nc2ccc(C(N)=O)cc2)cc1C(=O)N1CCCCCC1,17.2%
4,O=C(Nc1ccc(N2CCN(C(=O)c3cccs3)CC2)cc1)c1cccc(F)c1,3.5%
5,CCn1nnc(NC(=O)CSc2ccc(Cl)cc2)n1,-5.2%
6,COCCN(CCOC)C(=O)c1c[nH]c2ccc(S(=O)(=O)N(C)c3ccc(F)cc3)cc2c1=O,-10%
7,COc1ccc(CC(=O)Nc2nc3ccc(F)cc3s2)cc1S(=O)(=O)N1CCOCC1,3.6%
8,CCOc1cc2c(cc1OC)C(NC(=O)c1ccco1)CC2=O (stereo not shown),15.9%
9,Cc1ccc2c(c1)N(CC(=O)N1CCCC1)C(=O)CO2,6.48%
10,COc1ccc(S(=O)(=O)NC2CCCC2)c(Cl)c1Cl,16.2%
11,CC(NC(=O)C12CC3(C)CC(C)(CC(C)(C3)C1)C2)C(=O)O (stereo not shown),13.4%
12,O=C(c1ccc(C(F)(F)F)cc1)C1CCCN(C(=O)Cn2cnnn2)C1 (stereo not shown),6.42%
13,COc1ccccc1NC(=O)CS(=O)(=O)c1cn(CC(=O)N2CCCC2)c2ccccc12,8.11%
14,C[C@@H]1CCC[C@H](C)N1NC(=O)c1ccc(Cl)c(S(N)(=O)=O)c1,8.23%
15,O=C(NCc1ccccc1F)c1cccs1,-4.61%
16,O=c1[nH]cnc2scc(-c3ccc(Br)cc3)c12,9.92%
17,O=C(Nc1ccc(F)c(F)c1)c1ccc(F)c(S(=O)(=O)N2CCOCC2)c1,-14.2%
18,O=S(=O)(NCc1csc(-c2cccnc2)n1)c1cccs1,7.99%
19,COc1ccc(CNC(=O)c2cc3cc(OC)ccc3oc2=O)cc1,7.06%
20,Cc1ccc(S(=O)(=O)NC(C(=O)Oc2ccc3ccc(=O)oc3c2)c2ccccc2)cc1 (stereo not shown),7.71%
21,CSc1nnc(Cc2cc(=O)[nH]c(=O)[nH]2)n1-c1cccc(C)c1,7.12%
22,COc1ccc(NC(=O)c2cc([N+](=O)[O-])ccc2N2CCCCC2)cc1,10.3%
